Data as given in PubChem BioAssay AID624417 (National Center for Advancing Translational Sciences (NCATS), 2012).
In all, about 410,000 compounds went through this assay and about 6,400 (1.6%) were called active. Inconclusive means that the source gave no clear call. Such entries were picked first, then a sample of the others. The call rests on the fitted dose curve; in most records, active means well fitted inhibition curve with a large enough effect; inconclusive means small, poorly fitted or top-dose-only effect; inactive means no such curve, though single readings can be large or run the other way. Where the call is inconclusive, the potency comes from a doubtful curve fit.

Molecular target: Glucagon-like peptide 1 receptor (Homo sapiens) (UniProt P43220)
Assay: qHTS of GLP-1 Receptor Inverse Agonists (Inhibition Mode); further: nearly all actives have a fitted effect of over 55% in size
Details: HEK293 GLP-1R CRE-luciferase, luminescence, 24 h, GLP-1R form is constitutively active; activity change, negative = inhibition: at 38.3 µM (top of the series) unless noted
Method in brief: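 Readout was luciferase luminescence, measured 12 min after detection reagent at room temperature. Beforehand, GLP-1R reporter HEK293 cells had sat 12 h, then received compounds for 24 hr at 37 deg C.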
On the % scale 0 is the no-effect control and ±100 the full control effect; potency means the concentration at half of the fitted maximal effect; tags describe the fitted curve by direction and shape.

Sequence of UniProt P43220 (P43220 whole entry, looked up): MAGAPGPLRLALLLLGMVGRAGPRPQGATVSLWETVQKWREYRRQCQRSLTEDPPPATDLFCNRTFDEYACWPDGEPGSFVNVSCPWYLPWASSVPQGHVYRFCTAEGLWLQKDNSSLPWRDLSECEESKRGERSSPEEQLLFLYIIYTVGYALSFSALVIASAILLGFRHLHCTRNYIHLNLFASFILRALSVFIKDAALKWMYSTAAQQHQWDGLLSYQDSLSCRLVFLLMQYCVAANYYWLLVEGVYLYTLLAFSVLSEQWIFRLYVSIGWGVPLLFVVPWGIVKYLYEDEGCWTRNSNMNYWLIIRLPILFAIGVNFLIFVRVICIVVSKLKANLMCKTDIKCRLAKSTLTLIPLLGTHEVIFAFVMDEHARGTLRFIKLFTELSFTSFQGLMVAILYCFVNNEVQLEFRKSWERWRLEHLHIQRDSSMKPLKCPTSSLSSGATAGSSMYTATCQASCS

Potency, inconclusive:
Cc1ccc(NC(=O)C(c2ccc(Cl)cc2)N2CCCCC2)cc1 (stereo unspecified) 0.447 µM [inhibitor, full curve, poor fit]
O=C(COC(=O)C1CC1)Nc1ccc(Oc2ccccc2)cc1 31.6 µM [inhibitor, partial curve, poor fit]
COc1ccc(OCc2nc3ccccc3n2C(C)c2ccccc2)cc1 (stereo unspecified) 28.2 µM [inhibitor, single point]
Cc1ccc([C@@H]2CC=C(C(=O)O)[C@H](c3ccc(Cl)cc3)N2S(=O)(=O)c2ccc(C)cc2)cc1 11.2 µM [inhibitor, single point]
CCCN(S(=O)(=O)c1ccccc1F)S(=O)(=O)c1ccccc1Br 7.94 µM [inhibitor, partial curve, poor fit]
O=C(NCC1CC1)C1(C(F)(F)F)C/C(=C\Cc2ccccc2)CCCO1 (stereo unspecified) 14.1 µM [inhibitor, single point]
COc1ccc(NC(=O)c2ccc3ccccc3c2)cc1NS(=O)(=O)c1ccc(F)cc1 31.6 µM [inhibitor, single point]
CCc1nc2ccc(C(=O)NCc3ccc(OC)cc3)cn2c1N(C)Cc1ccc(OC)cc1 28.2 µM [inhibitor, single point]
CC(C)Cn1c(N)c(C(=O)COC(=O)c2ccccc2F)c(=O)n(C)c1=O 12.6 µM [inhibitor, single point]
O=C(/C=C/c1ccco1)Nc1ccc(Oc2ccc(Cl)cc2)cc1 1.58 µM [inhibitor, full curve, poor fit]
COc1ccc2c(-c3ccc(OCCN4CCCCC4)cc3)c(-c3ccccc3OC)sc2c1 10 µM [inhibitor, partial curve, poor fit]
COCCNc1nc(-c2ccc(Cl)cc2C)c2sccc2n1 28.2 µM [inhibitor, single point]
Cn1cc(Cl)c(C(=O)N/N=C/c2ccc(OS(=O)(=O)c3ccccc3)cc2)n1 25.1 µM [inhibitor, single point]
Fc1ccc(C2CC(c3cccs3)=NN2c2ccccc2)cc1 (stereo unspecified) 1.78 µM [inhibitor, partial curve, poor fit]
O=C(NCc1ccc(Cl)cc1)c1ccc(CSCc2cccc(Cl)c2)o1 10 µM [inhibitor, single point]
CCOc1ccccc1OCC(=O)Nc1cc(S(=O)(=O)N2CCCCC2)ccc1N1CCN(CC)CC1 28.2 µM [inhibitor, single point]
Cc1ccccc1CCNC(=O)Cn1ccc2cc(S(=O)(=O)N3CCCC3)ccc21 4.47 µM [inhibitor, full curve, poor fit]
Cc1ccc(-c2nc(-c3ccc(Cl)cc3)sc2CC(=O)O)c(C)c1 20 µM [inhibitor, single point]
COc1cccc(C(=O)NC2CC3CCCC(C2)N3CC(=O)Nc2ccccc2)c1 (stereo unspecified) 10 µM [inhibitor, partial curve, poor fit]
O=C(Cc1ccccc1)N(Cc1cccnc1)c1nc2c(F)cccc2s1 10 µM [inhibitor, partial curve, poor fit]
COc1ccc(/C=N/NC(=O)c2cc(C)oc2C)cc1OCc1ccccc1 22.4 µM [inhibitor, single point]
CC(=O)Nc1cccc(-c2csc(C(C)(O)c3ccccc3)n2)c1 (stereo unspecified) 28.2 µM [inhibitor, single point]
Cc1cccc(C)c1OCC(O)CN1CCC(CN2C(=O)c3cccc4cccc(c34)C2=O)CC1 (stereo unspecified) 1.26 µM [inhibitor, partial curve, poor fit]
Cc1ccc(S(=O)(=O)NCC(=O)NCCc2c[nH]c3ccccc23)cc1C 7.94 µM [inhibitor, partial curve]
O=C(N/N=C/c1ccc(Cl)s1)c1ccccc1[N+](=O)[O-] 28.2 µM [inhibitor, single point]
Cc1ccc(NC(=O)CN2C(=O)C(c3ccc(F)cc3)=NC23CCCCC3)c(C)c1 28.2 µM [inhibitor, single point]
CCN(CC)CCC(C)OC(c1ccccc1)c1ccccc1 (stereo unspecified) 28.2 µM [inhibitor, single point]
Nc1ccc(Oc2ccc(Br)cc2)cc1 7.94 µM [inhibitor, partial curve, poor fit]
COc1ccc2cc(C(=O)N/N=C/c3sc4ccccc4c3O)ccc2c1 7.94 µM [inhibitor, partial curve, poor fit]
O=C(Nc1ccc2c(c1)CCC2)c1cc2ccccc2o1 10 µM [inhibitor, partial curve, poor fit]
CC(C)c1ccc(NC(=O)Cn2nnc(C(=O)NCc3ccco3)c2N)cc1 2 µM [inhibitor, full curve, poor fit]

Potency, active:
COc1ccccc1NC(=S)NCCc1ccc(Cl)cc1 5.01 µM

Activity change, negative = inhibition, inactive:
Cc1cc(/C=C2\NC(=S)NC2=O)c(C)n1-c1cccnc1 26.8%
Nc1[nH]c(C(=O)c2ccccc2)c(-c2ccc(Cl)cc2)c1C(=O)NCc1ccccc1 5.02%
O=C1C2C3C=CC(C4CC34)C2C(=O)N1/N=C/c1ccc([N+](=O)[O-])o1 (stereo unspecified) 57%
CCOc1ccccc1NC(=O)CSc1nc2c(c(=O)[nH]1)CCC2 -3.85%
CCc1ccccc1NC(=O)C(CC)Sc1ncnc2c1sc1ccccc12 (stereo unspecified) -2.58%
CC(=O)Nc1ccc(NC(=O)CSC2=NS(=O)(=O)c3cc(F)ccc3N2)cc1 23%
Cc1ccc(N=C2NC(=O)/C(=C/C=C/c3ccco3)S2)cc1 51.8%
O=c1[nH]c2ccc(NCc3ccc(-c4cccc(Cl)c4)o3)cc2[nH]1 -2.1%
CC(=O)N1c2ccccc2N=C(c2ccc(C(F)(F)F)cc2)C1C(=O)NC(C)C (stereo unspecified) -2.19%
